According to patent US20110319597A1 (CAPHALON AUSTRALIA, published 2011):

B1: TNFα dAb Fc variant K39D (Fc fusion, name in Kabat numbering)
chain: DIQMTQSPSSLSASVGDRVTITCRASQAIDSYLHWYQQDPGKAPKLLIYSASNLETGVPSRFSGSGSGTDFTLTISSLLPEDFATYYCQQVVWRPFTFGQGTKVEIKRV[human IgG1 Fc with changes left out]
B2: TNFα dAb Fc variant K39H (Fc fusion, name in Kabat numbering)
chain: DIQMTQSPSSLSASVGDRVTITCRASQAIDSYLHWYQQHPGKAPKLLIYSASNLETGVPSRFSGSGSGTDFTLTISSLLPEDFATYYCQQVVWRPFTFGQGTKVEIKRV[human IgG1 Fc with changes left out]
B3: TNFα dAb Fc variant K39L (Fc fusion, name in Kabat numbering)
chain: DIQMTQSPSSLSASVGDRVTITCRASQAIDSYLHWYQQLPGKAPKLLIYSASNLETGVPSRFSGSGSGTDFTLTISSLLPEDFATYYCQQVVWRPFTFGQGTKVEIKRV[human IgG1 Fc with changes left out]
B4: TNFα dAb Fc variant K39P (Fc fusion, name in Kabat numbering)
chain: DIQMTQSPSSLSASVGDRVTITCRASQAIDSYLHWYQQPPGKAPKLLIYSASNLETGVPSRFSGSGSGTDFTLTISSLLPEDFATYYCQQVVWRPFTFGQGTKVEIKRV[human IgG1 Fc with changes left out]
B5: TNFα dAb Fc variant K39Q (Fc fusion, name in Kabat numbering)
chain: DIQMTQSPSSLSASVGDRVTITCRASQAIDSYLHWYQQQPGKAPKLLIYSASNLETGVPSRFSGSGSGTDFTLTISSLLPEDFATYYCQQVVWRPFTFGQGTKVEIKRV[human IgG1 Fc with changes left out]
B6: TNFα dAb Fc variant K39Y (Fc fusion, name in Kabat numbering)
chain: DIQMTQSPSSLSASVGDRVTITCRASQAIDSYLHWYQQYPGKAPKLLIYSASNLETGVPSRFSGSGSGTDFTLTISSLLPEDFATYYCQQVVWRPFTFGQGTKVEIKRV[human IgG1 Fc with changes left out]
B7: TNFα dAb Fc variant K42D (Fc fusion, name in Kabat numbering)
chain: DIQMTQSPSSLSASVGDRVTITCRASQAIDSYLHWYQQKPGDAPKLLIYSASNLETGVPSRFSGSGSGTDFTLTISSLLPEDFATYYCQQVVWRPFTFGQGTKVEIKRV[human IgG1 Fc with changes left out]
B8: TNFα dAb Fc variant K42P (Fc fusion, name in Kabat numbering)
chain: DIQMTQSPSSLSASVGDRVTITCRASQAIDSYLHWYQQKPGPAPKLLIYSASNLETGVPSRFSGSGSGTDFTLTISSLLPEDFATYYCQQVVWRPFTFGQGTKVEIKRV[human IgG1 Fc with changes left out]
B9: TNFα dAb Fc variant K45H (Fc fusion, name in Kabat numbering)
chain: DIQMTQSPSSLSASVGDRVTITCRASQAIDSYLHWYQQKPGKAPHLLIYSASNLETGVPSRFSGSGSGTDFTLTISSLLPEDFATYYCQQVVWRPFTFGQGTKVEIKRV[human IgG1 Fc with changes left out]
B10: TNFα dAb Fc variant K45P (Fc fusion, name in Kabat numbering)
chain: DIQMTQSPSSLSASVGDRVTITCRASQAIDSYLHWYQQKPGKAPPLLIYSASNLETGVPSRFSGSGSGTDFTLTISSLLPEDFATYYCQQVVWRPFTFGQGTKVEIKRV[human IgG1 Fc with changes left out]
B11: TNFα dAb Fc variant L46A (Fc fusion, name in Kabat numbering)
chain: DIQMTQSPSSLSASVGDRVTITCRASQAIDSYLHWYQQKPGKAPKALIYSASNLETGVPSRFSGSGSGTDFTLTISSLLPEDFATYYCQQVVWRPFTFGQGTKVEIKRV[human IgG1 Fc with changes left out]
B12: TNFα dAb Fc variant L46D (Fc fusion, name in Kabat numbering)
chain: DIQMTQSPSSLSASVGDRVTITCRASQAIDSYLHWYQQKPGKAPKDLIYSASNLETGVPSRFSGSGSGTDFTLTISSLLPEDFATYYCQQVVWRPFTFGQGTKVEIKRV[human IgG1 Fc with changes left out]
B13: TNFα dAb Fc variant L46H (Fc fusion, name in Kabat numbering)
chain: DIQMTQSPSSLSASVGDRVTITCRASQAIDSYLHWYQQKPGKAPKHLIYSASNLETGVPSRFSGSGSGTDFTLTISSLLPEDFATYYCQQVVWRPFTFGQGTKVEIKRV[human IgG1 Fc with changes left out]
B14: TNFα dAb Fc variant L46K (Fc fusion, name in Kabat numbering)
chain: DIQMTQSPSSLSASVGDRVTITCRASQAIDSYLHWYQQKPGKAPKKLIYSASNLETGVPSRFSGSGSGTDFTLTISSLLPEDFATYYCQQVVWRPFTFGQGTKVEIKRV[human IgG1 Fc with changes left out]
B15: TNFα dAb Fc variant L46P (Fc fusion, name in Kabat numbering)
chain: DIQMTQSPSSLSASVGDRVTITCRASQAIDSYLHWYQQKPGKAPKPLIYSASNLETGVPSRFSGSGSGTDFTLTISSLLPEDFATYYCQQVVWRPFTFGQGTKVEIKRV[human IgG1 Fc with changes left out]
B16: TNFα dAb Fc variant L46Q (Fc fusion, name in Kabat numbering)
chain: DIQMTQSPSSLSASVGDRVTITCRASQAIDSYLHWYQQKPGKAPKQLIYSASNLETGVPSRFSGSGSGTDFTLTISSLLPEDFATYYCQQVVWRPFTFGQGTKVEIKRV[human IgG1 Fc with changes left out]
B17: TNFα dAb Fc variant L46S (Fc fusion, name in Kabat numbering)
chain: DIQMTQSPSSLSASVGDRVTITCRASQAIDSYLHWYQQKPGKAPKSLIYSASNLETGVPSRFSGSGSGTDFTLTISSLLPEDFATYYCQQVVWRPFTFGQGTKVEIKRV[human IgG1 Fc with changes left out]
B18: TNFα dAb Fc variant L46Y (Fc fusion, name in Kabat numbering)
chain: DIQMTQSPSSLSASVGDRVTITCRASQAIDSYLHWYQQKPGKAPKYLIYSASNLETGVPSRFSGSGSGTDFTLTISSLLPEDFATYYCQQVVWRPFTFGQGTKVEIKRV[human IgG1 Fc with changes left out]
B19: TNFα dAb Fc variant L47A (Fc fusion, name in Kabat numbering)
chain: DIQMTQSPSSLSASVGDRVTITCRASQAIDSYLHWYQQKPGKAPKLAIYSASNLETGVPSRFSGSGSGTDFTLTISSLLPEDFATYYCQQVVWRPFTFGQGTKVEIKRV[human IgG1 Fc with changes left out]
B20: TNFα dAb Fc variant L47D (Fc fusion, name in Kabat numbering)
chain: DIQMTQSPSSLSASVGDRVTITCRASQAIDSYLHWYQQKPGKAPKLDIYSASNLETGVPSRFSGSGSGTDFTLTISSLLPEDFATYYCQQVVWRPFTFGQGTKVEIKRV[human IgG1 Fc with changes left out]
B21: TNFα dAb Fc variant L47H (Fc fusion, name in Kabat numbering)
chain: DIQMTQSPSSLSASVGDRVTITCRASQAIDSYLHWYQQKPGKAPKLHIYSASNLETGVPSRFSGSGSGTDFTLTISSLLPEDFATYYCQQVVWRPFTFGQGTKVEIKRV[human IgG1 Fc with changes left out]
B22: TNFα dAb Fc variant L47K (Fc fusion, name in Kabat numbering)
chain: DIQMTQSPSSLSASVGDRVTITCRASQAIDSYLHWYQQKPGKAPKLKIYSASNLETGVPSRFSGSGSGTDFTLTISSLLPEDFATYYCQQVVWRPFTFGQGTKVEIKRV[human IgG1 Fc with changes left out]
B23: TNFα dAb Fc variant L47P (Fc fusion, name in Kabat numbering)
chain: DIQMTQSPSSLSASVGDRVTITCRASQAIDSYLHWYQQKPGKAPKLPIYSASNLETGVPSRFSGSGSGTDFTLTISSLLPEDFATYYCQQVVWRPFTFGQGTKVEIKRV[human IgG1 Fc with changes left out]
B24: TNFα dAb Fc variant L47Q (Fc fusion, name in Kabat numbering)
chain: DIQMTQSPSSLSASVGDRVTITCRASQAIDSYLHWYQQKPGKAPKLQIYSASNLETGVPSRFSGSGSGTDFTLTISSLLPEDFATYYCQQVVWRPFTFGQGTKVEIKRV[human IgG1 Fc with changes left out]
B25: TNFα dAb Fc variant L47S (Fc fusion, name in Kabat numbering)
chain: DIQMTQSPSSLSASVGDRVTITCRASQAIDSYLHWYQQKPGKAPKLSIYSASNLETGVPSRFSGSGSGTDFTLTISSLLPEDFATYYCQQVVWRPFTFGQGTKVEIKRV[human IgG1 Fc with changes left out]
B26: TNFα dAb Fc variant L47Y (Fc fusion, name in Kabat numbering)
chain: DIQMTQSPSSLSASVGDRVTITCRASQAIDSYLHWYQQKPGKAPKLYIYSASNLETGVPSRFSGSGSGTDFTLTISSLLPEDFATYYCQQVVWRPFTFGQGTKVEIKRV[human IgG1 Fc with changes left out]
B27: TNFα dAb Fc variant L73A (Fc fusion, name in Kabat numbering)
chain: DIQMTQSPSSLSASVGDRVTITCRASQAIDSYLHWYQQKPGKAPKLLIYSASNLETGVPSRFSGSGSGTDFTATISSLLPEDFATYYCQQVVWRPFTFGQGTKVEIKRV[human IgG1 Fc with changes left out]
B28: TNFα dAb Fc variant L73D (Fc fusion, name in Kabat numbering)
chain: DIQMTQSPSSLSASVGDRVTITCRASQAIDSYLHWYQQKPGKAPKLLIYSASNLETGVPSRFSGSGSGTDFTDTISSLLPEDFATYYCQQVVWRPFTFGQGTKVEIKRV[human IgG1 Fc with changes left out]
B29: TNFα dAb Fc variant L73H (Fc fusion, name in Kabat numbering)
chain: DIQMTQSPSSLSASVGDRVTITCRASQAIDSYLHWYQQKPGKAPKLLIYSASNLETGVPSRFSGSGSGTDFTHTISSLLPEDFATYYCQQVVWRPFTFGQGTKVEIKRV[human IgG1 Fc with changes left out]
B30: TNFα dAb Fc variant L73K (Fc fusion, name in Kabat numbering)
chain: DIQMTQSPSSLSASVGDRVTITCRASQAIDSYLHWYQQKPGKAPKLLIYSASNLETGVPSRFSGSGSGTDFTKTISSLLPEDFATYYCQQVVWRPFTFGQGTKVEIKRV[human IgG1 Fc with changes left out]
B31: TNFα dAb Fc variant L73P (Fc fusion, name in Kabat numbering)
chain: DIQMTQSPSSLSASVGDRVTITCRASQAIDSYLHWYQQKPGKAPKLLIYSASNLETGVPSRFSGSGSGTDFTPTISSLLPEDFATYYCQQVVWRPFTFGQGTKVEIKRV[human IgG1 Fc with changes left out]

The binders below were run against T1, recombinant human TNFα (CytoLab) (human, UniProt P01375 fragment) (assay: ELISA on coated human TNFα).
T1 construct: coated on the ELISA plate at 1 µg/ml; also called Tumour necrosis factor alpha
T1 sequence (P01375 77-233 limits assumed): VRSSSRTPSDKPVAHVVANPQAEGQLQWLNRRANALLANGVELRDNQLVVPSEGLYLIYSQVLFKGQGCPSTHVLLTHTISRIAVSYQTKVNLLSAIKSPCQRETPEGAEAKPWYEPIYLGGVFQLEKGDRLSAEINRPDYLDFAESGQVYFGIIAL

| Binder | A450 (AU) |
| --- | --- |
| B1 | 0.754 |
| B2 | 1.06 |
| B3 | 1.06 |
| B4 | 0.949 |
| B5 | 0.982 |
| B6 | 1.02 |
| B7 | 1.03 |
| B8 | 0.246 |
| B9 | 1.18 |
| B10 | 0.191 |
| B11 | 0.185 |
| B12 | 0.191 |
| B13 | 0.166 |
| B14 | 0.243 |
| B15 | 0.179 |
| B16 | 0.234 |

| Binder | A450 (AU) |
| --- | --- |
| B17 | 0.171 |
| B18 | 0.256 |
| B19 | 0.257 |
| B20 | 0.215 |
| B21 | 0.284 |
| B22 | 0.271 |
| B23 | 0.193 |
| B24 | 0.369 |
| B25 | 0.222 |
| B26 | 0.903 |
| B27 | 0.225 |
| B28 | 0.172 |
| B29 | 0.155 |
| B30 | 0.269 |
| B31 | 0.173 |
